Experimental data: paper PMC9590400
Where two headings read alike, the source gives them in different places. These are yes or no findings as the source states them, for the method shown. In cells and extracts the contact can be indirect. Some binding calls cover weakened binding; strength is not graded here. For part of these data: Sequences can lack the tags named with a protein.

Amino acid sequences for entries named in this document (tags omitted).
UniProt O94986: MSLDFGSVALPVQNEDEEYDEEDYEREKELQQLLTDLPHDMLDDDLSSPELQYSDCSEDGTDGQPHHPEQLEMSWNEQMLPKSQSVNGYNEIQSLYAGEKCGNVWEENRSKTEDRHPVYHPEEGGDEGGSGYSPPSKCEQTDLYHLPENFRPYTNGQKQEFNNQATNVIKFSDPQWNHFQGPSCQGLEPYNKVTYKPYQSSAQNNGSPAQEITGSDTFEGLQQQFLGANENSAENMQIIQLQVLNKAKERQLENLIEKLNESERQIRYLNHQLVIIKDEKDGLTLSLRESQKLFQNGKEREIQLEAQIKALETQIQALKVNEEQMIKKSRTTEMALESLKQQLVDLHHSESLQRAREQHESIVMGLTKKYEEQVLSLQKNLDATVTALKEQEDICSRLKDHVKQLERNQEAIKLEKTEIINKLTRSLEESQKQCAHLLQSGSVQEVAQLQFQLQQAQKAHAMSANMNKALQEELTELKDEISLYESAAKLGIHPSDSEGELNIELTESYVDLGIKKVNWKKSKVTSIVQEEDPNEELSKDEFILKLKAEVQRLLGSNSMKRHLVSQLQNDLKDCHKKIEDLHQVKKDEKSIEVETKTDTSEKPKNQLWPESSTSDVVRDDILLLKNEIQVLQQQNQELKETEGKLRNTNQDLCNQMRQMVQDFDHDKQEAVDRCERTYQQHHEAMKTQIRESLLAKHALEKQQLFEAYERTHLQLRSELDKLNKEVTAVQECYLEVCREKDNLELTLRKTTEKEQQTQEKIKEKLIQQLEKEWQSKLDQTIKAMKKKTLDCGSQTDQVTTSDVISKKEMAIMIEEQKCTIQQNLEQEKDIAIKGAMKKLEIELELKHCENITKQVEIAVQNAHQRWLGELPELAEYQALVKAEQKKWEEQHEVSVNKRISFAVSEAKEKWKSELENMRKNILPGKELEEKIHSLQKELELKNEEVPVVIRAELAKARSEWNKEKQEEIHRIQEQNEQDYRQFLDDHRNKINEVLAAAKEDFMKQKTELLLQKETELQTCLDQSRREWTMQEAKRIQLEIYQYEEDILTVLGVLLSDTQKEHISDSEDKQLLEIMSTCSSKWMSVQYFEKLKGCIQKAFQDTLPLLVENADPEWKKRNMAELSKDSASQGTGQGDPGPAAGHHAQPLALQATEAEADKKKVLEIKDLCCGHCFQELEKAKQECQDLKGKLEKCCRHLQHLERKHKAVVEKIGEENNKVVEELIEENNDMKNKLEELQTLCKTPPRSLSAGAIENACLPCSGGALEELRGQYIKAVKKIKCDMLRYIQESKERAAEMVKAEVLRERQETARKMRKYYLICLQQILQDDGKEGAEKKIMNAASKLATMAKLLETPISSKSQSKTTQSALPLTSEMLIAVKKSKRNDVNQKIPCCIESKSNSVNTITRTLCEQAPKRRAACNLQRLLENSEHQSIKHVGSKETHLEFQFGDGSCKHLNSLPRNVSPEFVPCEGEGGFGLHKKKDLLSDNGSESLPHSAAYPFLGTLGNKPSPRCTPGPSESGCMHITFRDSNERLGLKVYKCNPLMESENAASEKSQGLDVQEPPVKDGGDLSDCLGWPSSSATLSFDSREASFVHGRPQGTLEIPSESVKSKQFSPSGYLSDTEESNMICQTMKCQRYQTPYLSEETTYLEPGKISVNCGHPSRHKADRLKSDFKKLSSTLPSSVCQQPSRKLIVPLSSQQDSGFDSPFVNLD

B1: CEP131, endogenous in HeLa (protein, UniProt Q9UPN4 1-1083)
chain: MKGTRAIGSVPERSPAGVDLSLTGLPPPVSRRPGSAATTKPIVRSVSVVTGSEQKRKVLEATGPGGSQAINNLRRSNSTTQVSQPRSGSPRPTEPTDFLMLFEGSPSGKKRPASLSTAPSEKGATWNVLDDQPRGFTLPSNARSSSALDSPAGPRRKECTVALAPNFTANNRSNKGAVGNCVTTMVHNRYTPSERAPPLKSSNQTAPSLNNIIKAATCEGSESSGFGKLPKNVSSATHSARNNTGGSTGLPRRKEVTEEEAERFIHQVNQATVTIQRWYRHQVQRRGAGAARLEHLLQAKREEQRQRSGEGTLLDLHQQKEAARRKAREEKARQARRAAIQELQQKRALRAQKASTAERGPPENPRETRVPGMRQPAQELSPTPGGTAHQALKANNTGGGLPAAGPGDRCLPTSDSSPEPQQPPEDRTQDVLAQDAAGDNLEMMAPSRGSAKSRGPLEELLHTLQLLEKEPDVLPRPRTHHRGRYAWASEVTTEDDASSLTADNLEKFGKLSAFPEPPEDGTLLSEAKLQSIMSFLDEMEKSGQDQLDSQQEGWVPEAGPGPLELGSEVSTSVMRLKLEVEEKKQAMLLLQRALAQQRDLTARRVKETEKALSRQLQRQREHYEATIQRHLAFIDQLIEDKKVLSEKCEAVVAELKQEDQRCTERVAQAQAQHELEIKKLKELMSATEKARREKWISEKTKKIKEVTVRGLEPEIQKLIARHKQEVRRLKSLHEAELLQSDERASQRCLRQAEELREQLEREKEALGQQERERARQRFQQHLEQEQWALQQQRQRLYSEVAEERERLGQQAARQRAELEELRQQLEESSSALTRALRAEFEKGREEQERRHQMELNTLKQQLELERQAWEAGRTRKEEAWLLNREQELREEIRKGRDKEIELVIHRLEADMALAKEESEKAAESRIKRLRDKYEAELSELEQSERKLQERCSELKGQLGEAEGENLRLQGLVRQKERALEDAQAVNEQLSSERSNLAQVIRQEFEDRLAASEEETRQAKAELATLQARQQLELEEVHRRVKTALARKEEAVSSLRTQHEAAVKRADHLEELLEQHRRPTPSTK
B2: astrin (sperm-associated antigen 5), endogenous in HeLa (protein, UniProt Q96R06 1-1193)
chain: MWRVKKLSLSLSPSPQTGKPSMRTPLRELTLQPGALTNSGKRSPACSSLTPSLCKLGLQEGSNNSSPVDFVNNKRTDLSSEHFSHSSKWLETCQHESDEQPLDPIPQISSTPKTSEEAVDPLGNYMVKTIVLVPSPLGQQQDMIFEARLDTMAETNSISLNGPLRTDDLVREEVAPCMGDRFSEVAAVSEKPIFQESPSHLLEESPPNPCSEQLHCSKESLSSRTEAVREDLVPSESNAFLPSSVLWLSPSTALAADFRVNHVDPEEEIVEHGAMEEREMRFPTHPKESETEDQALVSSVEDILSTCLTPNLVEMESQEAPGPAVEDVGRILGSDTESWMSPLAWLEKGVNTSVMLENLRQSLSLPSMLRDAAIGTTPFSTCSVGTWFTPSAPQEKSTNTSQTGLVGTKHSTSETEQLLCGRPPDLTALSRHDLEDNLLSSLVILEVLSRQLRDWKSQLAVPHPETQDSSTQTDTSHSGITNKLQHLKESHEMGQALQQARNVMQSWVLISKELISLLHLSLLHLEEDKTTVSQESRRAETLVCCCFDLLKKLRAKLQSLKAEREEARHREEMALRGKDAAEIVLEAFCAHASQRISQLEQDLASMREFRGLLKDAQTQLVGLHAKQEELVQQTVSLTSTLQQDWRSMQLDYTTWTALLSRSRQLTEKLTVKSQQALQERDVAIEEKQEVSRVLEQVSAQLEECKGQTEQLELENSRLATDLRAQLQILANMDSQLKELQSQHTHCAQDLAMKDELLCQLTQSNEEQAAQWQKEEMALKHMQAELQQQQAVLAKEVRDLKETLEFADQENQVAHLELGQVECQLKTTLEVLRERSLQCENLKDTVENLTAKLASTIADNQEQDLEKTRQYSQKLGLLTEQLQSLTLFLQTKLKEKTEQETLLLSTACPPTQEHPLPNDRTFLGSILTAVADEEPESTPVPLLGSDKSAFTRVASMVSLQPAETPGMEESLAEMSIMTTELQSLCSLLQESKEEAIRTLQRKICELQARLQAQEEQHQEVQKAKEADIEKLNQALCLRYKNEKELQEVIQQQNEKILEQIDKSGELISLREEVTHLTRSLRRAETETKVLQEALAGQLDSNCQPMATNWIQEKVWLSQEVDKLRVMFLEMKNEKEKLMIKFQSHRNILEENLRRSDKELEKLDDIVQHIYKTLLSIPEVVRGCKELQGLLEFLS
B3: CEP63, endogenous in HeLa (protein, UniProt Q96MT8 1-703)
chain: MEALLEGIQNRGHGGGFLTSCEAELQELMKQIDIMVAHKKSEWEGRTHALETCLKIREQELKSLRSQLDVTHKEVGMLHQQVEEHEKIKQEMTMEYKQELKKLHEELCILKRSYEKLQKKQMREFRGNTKNHREDRSEIERLTAKIEEFRQKSLDWEKQRLIYQQQVSSLEAQRKALAEQSEIIQAQLVNRKQKLESVELSSQSEIQHLSSKLERANDTICANELEIERLTMRVNDLVGTSMTVLQEQQQKEEKLRESEKLLEALQEEKRELKAALQSQENLIHEARIQKEKLQEKVKATNTQHAVEAIRPREESLAEKKYTSQGQGDLDSVLSQLNFTHTSEDLLQAEVTCLEGSLESVSATCKQLSQELMEKYEELKRMEAHNNEYKAEIKKLKEQILQGEQSYSSALEGMKMEISHLTQELHQRDITIASTKGSSSDMEKRLRAEMQKAEDKAVEHKEILDQLESLKLENRHLSEMVMKLELGLHEAKEISLADLQENYIEALNKLVSENQQLQKDLMNTKSQLEISTQMCKKQNDRIFKPTHSRTTEFKNTEFKPTHGQHRHDGIKTEHYKTDLHSPRGQASDSINPMSRVLSPLSPQISPCSSTRSLTSYSLCKTHSLPSALDTNEANFSDTMSESMNDQEEFISSCSLPVSPLGSIATRFLEEEELRSHHILERLDAHIEELKRESEKTVRQFTALK
B4: small kinetochore-associated protein (SKAP), endogenous in HeLa (protein, UniProt Q9Y448 1-316)
chain: MAAPEAPPLDRVFRTTWLSTECDSHPLPPSYRKFLFETQAADLAGGTTVAAGNLLNESEKDCGQDRRAPGVQPCRLVTMTSVVKTVYSLQPPSALSGGQPADTQTRATSKSLLPVRSKEVDVSKQLHSGGPENDVTKITKLRRENGQMKATDTATRRNVRKGYKPLSKQKSEEELKDKNQLLEAVNKQLHQKLTETQGELKDLTQKVELLEKFRDNCLAILESKGLDPALGSETLASRQESTTDHMDSMLLLETLQEELKLFNETAKKQMEELQALKVKLEMKEERVRFLEQQTLCNNQVNDLTTALKEMEQLLEM
B5: Myc-binding protein (MYCBP), endogenous in HeLa (protein, UniProt Q99417 1-103)
chain: MAHYKAADSKREQFRRYLEKSGVLDTLTKVLVALYEEPEKPNSALDFLKHHLGAATPENPEIELLRLELAEMKEKYEAIVEENKKLKAKLAQYEPPQEEKRAE

Experiments:
[1] = target: T1, Coiled-coil alpha-helical rod protein 1 (HCR), endogenous in HeLa (human (endogenous in HeLa)) (UniProt Q8TD31); experiment: co-IP; endogenous proteins in HeLa cell lysates (50 mM Tris, 150 mM NaCl, 0.1% NP40); antibody to one partner or control rabbit IgG, protein A and protein G beads, 4 °C; western blot
T1 sequence: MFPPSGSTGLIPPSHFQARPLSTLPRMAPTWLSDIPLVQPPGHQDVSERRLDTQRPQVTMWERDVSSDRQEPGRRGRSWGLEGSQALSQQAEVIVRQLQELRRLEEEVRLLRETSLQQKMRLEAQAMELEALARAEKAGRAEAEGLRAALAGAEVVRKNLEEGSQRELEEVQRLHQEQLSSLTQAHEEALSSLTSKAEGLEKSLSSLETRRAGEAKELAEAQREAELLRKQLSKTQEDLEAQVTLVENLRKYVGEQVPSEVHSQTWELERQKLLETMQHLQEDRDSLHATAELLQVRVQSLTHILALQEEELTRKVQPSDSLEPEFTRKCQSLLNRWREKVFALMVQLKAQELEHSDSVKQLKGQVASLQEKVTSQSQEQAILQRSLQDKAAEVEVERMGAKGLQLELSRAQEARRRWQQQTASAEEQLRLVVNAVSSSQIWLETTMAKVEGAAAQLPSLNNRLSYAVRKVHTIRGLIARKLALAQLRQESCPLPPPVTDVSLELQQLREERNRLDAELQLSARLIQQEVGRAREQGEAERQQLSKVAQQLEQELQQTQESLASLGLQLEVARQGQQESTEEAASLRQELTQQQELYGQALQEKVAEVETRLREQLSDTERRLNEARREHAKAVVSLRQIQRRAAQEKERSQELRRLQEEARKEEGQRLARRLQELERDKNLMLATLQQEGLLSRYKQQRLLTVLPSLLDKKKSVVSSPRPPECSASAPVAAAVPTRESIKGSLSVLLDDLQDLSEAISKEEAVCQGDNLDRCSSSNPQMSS

[2] = target: T1, Coiled-coil alpha-helical rod protein 1 (HCR), endogenous in HeLa (human (endogenous in HeLa)); experiment: as above; remark: listed apart in the source

| Molecule | binding [1] | binding [2] |
| --- | --- | --- |
| CEP152, endogenous in HeLa (from UniProt O94986 1-1710) | no binding |  |
| B1 |  | binds |
| B2 |  | binds |
| B3 |  | no binding |
| B4 |  | no binding |
| B5 |  | no binding |
